Source: PubChem BioAssay AID624170 (National Center for Advancing Translational Sciences (NCATS), 2012)
The whole screen tested about 410,000 compounds, of which about 850 (0.21%) were called active. The inconclusive results got no clear call from the source; some entries with a clear call stand among them for comparison. Calls follow the shape of the dose curve; as a rule, active = well fitted inhibition curve with a large enough effect; inconclusive = small, poorly fitted or top-dose-only effect, or another doubt; inactive = no such curve, though single readings can be large or run the other way. No potency is given beside an inconclusive call; the fits are too rough. The source holds several records for some structures; these can differ, active in one and inactive in another.

Target: Glutaminase kidney isoform, mitochondrial (Homo sapiens) (UniProt O94925)
Sequence of UniProt O94925 (O94925 whole entry, looked up, canonical isoform): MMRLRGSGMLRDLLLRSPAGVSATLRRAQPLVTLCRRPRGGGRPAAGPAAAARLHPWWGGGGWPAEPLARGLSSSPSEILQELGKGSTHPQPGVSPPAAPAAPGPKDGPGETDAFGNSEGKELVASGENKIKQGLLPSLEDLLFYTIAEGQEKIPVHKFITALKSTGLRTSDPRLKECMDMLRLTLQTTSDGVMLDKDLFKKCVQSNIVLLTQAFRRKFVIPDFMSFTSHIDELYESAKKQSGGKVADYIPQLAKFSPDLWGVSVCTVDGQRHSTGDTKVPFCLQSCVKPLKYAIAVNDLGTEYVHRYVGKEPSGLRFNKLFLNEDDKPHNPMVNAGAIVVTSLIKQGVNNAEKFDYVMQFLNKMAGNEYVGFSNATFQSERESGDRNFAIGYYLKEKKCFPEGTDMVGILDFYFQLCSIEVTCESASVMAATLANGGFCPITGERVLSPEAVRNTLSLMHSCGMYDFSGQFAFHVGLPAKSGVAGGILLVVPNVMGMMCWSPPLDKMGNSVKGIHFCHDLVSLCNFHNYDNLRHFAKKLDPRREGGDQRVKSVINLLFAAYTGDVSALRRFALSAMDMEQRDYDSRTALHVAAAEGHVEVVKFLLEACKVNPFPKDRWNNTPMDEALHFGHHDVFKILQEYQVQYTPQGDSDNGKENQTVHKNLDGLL
Test: qHTS for Inhibitors of Glutaminase (GLS)
Settings: GLS enzymatic activity, qHTS titration; series mostly up to 45.5 µM
Outline: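 Assay buffer: 45 mM KH2PO4 pH 8.2, 0.02% Tween-20. hKGA acts on L-glutamine (1 mM solution added); product glutamate is reported by an oxidase/peroxidase Amplex Red coupling, with fluorescence taken at baseline and 30 min.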
Potency is read from the fitted curve at half-maximal effect; tags tell the direction and shape of the fitted curve.

Compound | Potency
CCN(CC(=O)Nc1c(F)cccc1F)C(=O)c1ccc2ccccc2n1 | inactive
Cc1cc(Cl)ccc1N1C(=O)CC(NNC(=O)c2cccnc2)C1=O (stereo unspecified) | active: 7.08 µM
CC(C)Sc1nc(-c2ccccc2)cc(=O)[nH]1 | inactive
O=C(CSc1nc2ccccc2c(=O)[nH]1)Nc1nc(-c2ccc(Br)cc2)cs1 | inconclusive [inhibitor, full curve]
COc1ccc([C@H]2CC(=O)C=C(c3ccc(NC(C)=O)cc3)C2)cc1OC | inactive
COc1cccc(-c2coc3cc4oc(=O)c(CCC(=O)O)c(C)c4cc23)c1 | active: 12.6 µM
CCC(Sc1nc(C)cc(C)n1)C(=O)NC1=NN=C(c2ccc(C)cc2)CS1 (stereo unspecified) | inactive
CC1(C(=O)Nc2ccccc2)Cc2ccccc2C(=O)O1 (stereo unspecified) | inconclusive [inhibitor, single point]
CCCSC1=C(C#N)C(c2ccc(Cl)cc2Cl)CC(=O)N1 (stereo unspecified) | inconclusive [inhibitor, partial curve, poor fit]
Cc1cc(=O)n2nc(N3CCCC(C(=O)NCc4ccccc4Cl)C3)sc2n1 (stereo unspecified) | inconclusive [inhibitor, partial curve]
Cc1ccc(NC(=O)c2ccc(S(=O)(=O)N3CCCCCC3)cc2)nc1 | inactive
Cc1cccc(NC(=O)c2oc3ccc(S(=O)(=O)N4CCC5(CC4)OCCO5)cc3c2C)c1C | inactive
NC(=O)c1nsc(C(=O)N(Cc2ccccc2F)C(C(=O)NCC2CCCO2)c2ccc(F)cc2)c1N (stereo unspecified) | inconclusive [inhibitor, single point]
COc1cc(/C=N/NC(=O)NC2CCCCC2)ccc1O | inconclusive [inhibitor, partial curve]
CCN(CC)CCOC(=O)c1ccc(N/C=C(/C#N)c2nc(-c3ccc(OC)c(OC)c3)cs2)cc1 | inconclusive [inhibitor, single point]
CCOC(=O)c1[nH]c(C)c(CCC(=O)Nc2ccc(Br)c(C)c2)c1C | inactive
O=C(Nc1cc(C(=O)Nc2ccccc2C(=O)O)cc(C(=O)Nc2ccccc2C(=O)O)c1)c1ccccc1 | inconclusive [inhibitor, single point]
COc1ccccc1CNC(=O)C1CCCN(S(C)(=O)=O)C1 (stereo unspecified) | inconclusive [inhibitor, single point]
CC1=NNC(=O)C1C(c1ccc(Cl)cc1)C(C#N)C#N (stereo unspecified) | inconclusive [inhibitor, partial curve]
S=c1[nH]nc(-c2ccccc2)n1/N=C/C=C/c1ccco1 | inconclusive [inhibitor, partial curve]
Cc1ccc(S(=O)(=O)NCc2ccccc2)cc1C(=O)NC1CCC(C)CC1 (stereo unspecified) | inactive
COc1ccc(NC(=O)C(CC(=O)O)Cc2ccc(Br)cc2)cc1 (stereo unspecified) | inconclusive [inhibitor, single point]
CCCC(=O)OCC(=O)Nc1ccc(OC(F)F)cc1 | inconclusive [inhibitor, single point]
CCN(CC)CCNC(=O)c1cc2c(-c3ccc(Cl)cc3)nn(C)c2s1 | inactive

Compound | Potency
O=C(Cn1sc2ccccc2c1=O)Nc1ccc(F)cc1 | inconclusive [inhibitor, partial curve, poor fit]
COc1cc(NC(C)CCCN)c2nc(C)ccc2c1Oc1ccc(F)cc1 (stereo unspecified) | inconclusive [inhibitor, single point]
O=C(COC(=O)c1ccccc1O)Nc1ncc(Cl)cc1Cl | inconclusive [inhibitor, partial curve]
COc1ccc(OC)c(N2C(=O)C(Cl)=C(N3CCCCC3)C2=O)c1 | inconclusive [inhibitor, single point]
CCN(c1ccccc1)c1ncnc2c1cnn2-c1ccc(OC)cc1 | inactive
CNC(=O)c1nc(C)n(-c2ccc(Cl)cc2Cl)n1 | inconclusive [inhibitor, single point]
O=C(O)c1ccc(COc2ccc3ccccc3c2/C=C2/NC(=O)N(Cc3ccc(F)cc3)C2=O)cc1 | inconclusive [inhibitor, single point]
COc1ccc(/C=N\NC(=O)c2ccc([N+](=O)[O-])cc2)cc1COc1c(F)c(F)cc(F)c1F | inactive
COc1ccc(OC)c(Nc2nc(-c3ccc(O)c(O)c3)cs2)c1 | inconclusive [inhibitor, single point]
O=c1c2ccccc2sn1-c1ccc(S(=O)(=O)N2CCCC2)cc1 | inconclusive [inhibitor, single point]
CC(C)(C)c1cc(C(c2cccnc2)N2CCN(CCO)CC2)cc(C(C)(C)C)c1O (stereo unspecified) | inconclusive [inhibitor, single point]
C=CC1C(N2CCOCC2)C(C)(C)S1(=O)=O (stereo unspecified) | inconclusive [inhibitor, single point]
O=C1CCCC2=C1Sc1ccccc1N2 | active: 12.6 µM
CCN(CC)S(=O)(=O)c1ccc(NS(=O)(=O)c2cccc(C)c2)cc1 | inconclusive [inhibitor, partial curve]
Cn1c(N)c(C(=O)COC(=O)C2(c3ccc(Cl)cc3)CCCC2)c(=O)n(C)c1=O | inconclusive [inhibitor, partial curve, poor fit]
COc1cc(N=c2ssnc2Cl)c(OC)cc1Cl | active: 15.8 µM
CCOc1ccc(NCCC(O)c2ccc(F)cc2)cc1 (stereo unspecified) | inconclusive [inhibitor, single point]
COc1ccc(S(=O)(=O)Nc2ccccc2-c2nnn(CC(=O)Nc3ccccc3OC)n2)cc1 | inactive
C/C(=N/Nc1ccccc1C(=O)O)c1cccs1 | active: 12.6 µM
O=C(N/N=C/C=C/c1ccc([N+](=O)[O-])cc1)c1cccs1 | inactive
CCOC(=O)c1[nH]c(=S)n(Cc2ccccc2)c1C(=O)OCC | inconclusive [inhibitor, partial curve]
COc1ccc(NC(=O)CCN2CCN(S(=O)(=O)c3ccc(C(C)C)cc3)CC2)cc1 | inconclusive [inhibitor, single point]
CCOC(=O)c1c(C)[nH]c(C)c1C(=O)COC(=O)c1cc2ccccc2cc1O | inconclusive [inhibitor, single point]
O=c1c2cccnc2n(-c2ccccc2)n1Cc1ccc(Cl)cc1 | inconclusive [inhibitor, single point]

Compound | Potency
COc1ccc(C(=O)Nc2sc(C)c(C)c2CN2CCOCC2)cc1 | inconclusive [inhibitor, partial curve]
CC(C)c1ccc(C2CC(=O)N3CN(C)CSC3=C2C#N)cc1 (stereo unspecified) | inconclusive [inhibitor, partial curve, poor fit]
COc1ccccc1-c1noc(CCC(=O)Nc2ccccc2Cl)n1 | inconclusive [inhibitor, single point]
Cc1cc(N2CCOCC2)nc2ccc(Cl)cc12 | inactive
O=C1CCCC2=C1C1(CCCC1)N=C(Nc1nc3ccccc3o1)N2 | inconclusive [inhibitor, partial curve, poor fit]
S=c1[nH]nc(-c2ccc(Br)cc2)n1-c1ccc2c(c1)OCCO2 | inconclusive [inhibitor, single point]
COC1=C(NCc2ccc3c(c2)OCO3)C(=O)C(OC)=C(NCc2ccc3c(c2)OCO3)C1=O | inactive
N#Cc1c(NC(=O)/C=C/C(=O)O)sc2c1CCN(Cc1ccccc1)C2 | inconclusive [inhibitor, single point]
CC(=O)NNc1cc(C)nc(N)n1 | inconclusive [inhibitor, partial curve]
COC(=O)c1ccc(NC(=O)c2nc(S(=O)(=O)Cc3cccc(C)c3)ncc2Cl)cc1 | inconclusive [inhibitor, single point]
CC(C)n1c(=S)[nH]c2c1c(=O)[nH]c(=O)n2C | inconclusive [inhibitor, single point]
C/C(=N/NS(=O)(=O)c1ccc(C)cc1)c1c[nH]c2ccccc12 | inactive
Cc1nnc2ccc(Oc3ccc(-c4ccccc4)cc3)nn12 | inconclusive [inhibitor, single point]
Oc1ccc(N2CCN(c3ccnc4cc(Cl)ccc34)CC2)cc1 | inactive
Nc1nc(Cl)nc2c1ncn2C1CCC(CO)O1 (stereo unspecified) | inconclusive [inhibitor, single point]
C/C(=N\NC(=O)c1cc(C2CC2)nc2ccccc12)c1ccc(O)cc1O | inconclusive [inhibitor, single point]
CC(NS(=O)(=O)OCC(Cl)(Cl)Cl)c1ccc(C(C)(C)C)cc1 (stereo unspecified) | inactive
O=C1/C(=C/Nc2ccc3c(c2)OCO3)CCc2ccccc21 | inactive
Oc1ccccc1N1CCN(Cc2ncc(-c3ccccc3)o2)CC1 | inconclusive [inhibitor, partial curve]
CCn1c(N)c(C(=O)NCCCOC)sc1=S | inactive
O=C(CC(c1ccccc1)c1ccccc1)Nc1ccc(O)cc1 | inconclusive [inhibitor, partial curve]
CCOc1cc(/C=N/NC(=O)c2cc(-c3cccnc3)nc3ccccc23)ccc1O | inconclusive [inhibitor, full curve]
CNc1nc(Cl)c(SC)c(NCc2cccc(OC)c2)n1 | inconclusive [inhibitor, single point]
